Results reported in US9849130B2 (KamTek, Inc., priority 2014, dated 2017).

Test system: C. difficile VPI10463
Test: MIC in culture medium containing 20% fecal extracts against C. difficile VPI10463

In the case of `CC(C)N=c1cc2n(-c3ccc(Cl)cc3)c3ccccc3nc-2cc1Nc1ccc(Cl)cc1` [CFM, 3-(p-chloroanilino)-10-(p-chlorophenyl)-2,10-dihydro-2-iso-propyliminophenazine], the “deviation in MIC in culture medium containing 20% fecal extracts” value is reported as “No significant deviation”.
